# The list shows a part of the results.
# Test system: HSkMC (human skeletal muscle cells)
# Experiment: cytotoxicity call (relative viability < 0.9)
# Settings: 10 µM
row,SMILES,cytotoxicity call
1,COc1ccc(S(=O)(=O)N2C[C@H](O)COC[C@H]3O[C@H](CC(=O)N[C@@H]4CCN(Cc5ccccc5)C4)CC[C@@H]32)cc1,inactive
2,C[C@@H]1CCCCO[C@H](CN(C)CC2CCCCC2)[C@H](C)CN([C@H](C)CO)C(=O)c2cc(NC(=O)NC3CCCCC3)ccc2O1,inactive
3,COc1ccccc1CN(C)C[C@H]1OCc2ccccc2-c2c(n(C)c3ccccc23)C(=O)N([C@@H](C)CO)C[C@H]1C,inactive
4,CC(C)N1CC2(CN(Cc3ccc(Cl)c(Cl)c3)C2)Oc2c(NC(=O)c3ccncc3)cccc2C1=O,inactive
5,COc1ccccc1NC(=O)N(C)C[C@@H]1Oc2ncc(Br)cc2C(=O)N([C@H](C)CO)C[C@H]1C,inactive
6,O=S(=O)(Cc1ccccc1)Nc1ccc(-c2ccc3c(cnn3-c3ccc(F)cc3)c2)c(C(F)(F)F)c1,inactive
7,COc1ccc(S(=O)(=O)Nc2cccc3c2O[C@@H](CN(C)C(=O)Nc2cccc4ccccc24)[C@@H](C)CN([C@H](C)CO)C3=O)cc1,inactive
8,Nc1nc(=O)c2nc(CNc3ccc(C(=O)NC(CCC(=O)O)C(=O)O)cc3)cnc2[nH]1 (stereo not given),inactive
9,C[C@H](CO)N1C[C@H](C)[C@H](CN(C)C(=O)C2CCOCC2)Oc2ncc(/C=C/c3ccccc3)cc2C1=O,inactive
10,NCC1OC(OC2C(CO)OC(OC3C(O)C(N)CC(N)C3OC3OC(CO)C(O)C(O)C3N)C2O)C(N)C(O)C1O.O=S(=O)(O)O (stereo not given),inactive
11,Cc1ccc(S[C@]2(C(=O)NC3CC3)CC(=O)N(Cc3ccccc3C(F)(F)F)[C@@H]2c2ccc(CO)cc2I)cc1,inactive
12,C[C@H](CO)N1C[C@H](C)[C@@H](CN(C)Cc2ccc(Oc3ccccc3)cc2)OCc2ccccc2-c2c(n(C)c3ccccc23)C1=O,inactive
13,Cc1ccc(S(=O)(=O)N(C)C[C@@H]2OCCCC[C@H](C)Oc3ccc(NC(=O)Nc4ccc5c(c4)OCO5)cc3C(=O)N([C@H](C)CO)C[C@H]2C)cc1,inactive
14,COc1ccc(CN2C[C@H](C)[C@H](OC)CN(C)C(=O)c3cc(NC(=O)c4nc5ccccc5s4)ccc3OC[C@@H]2C)cc1,inactive
15,Cc1noc(C)c1NC(=O)Nc1ccc2c(c1)CC(=O)N([C@@H](C)CO)C[C@H](C)[C@H](CN(C)Cc1ccc(Cl)c(Cl)c1)O2,inactive
16,COc1ccc([Si](C)(C)[C@@H]2[C@@H](CCn3cc([C@H](O)c4ccccc4)nn3)O[C@]3(C(=O)N(Cc4cccc(N5CCOC5=O)c4)c4ccccc43)[C@H]2C)cc1,inactive
17,C[C@@H]1CN([C@H](C)CO)C(=O)c2cc(N(C)C)ccc2O[C@@H](C)CCCCO[C@H]1CN(C)Cc1ccc(C(=O)Nc2ccccc2N)cc1,inactive
18,CO[C@H]1CN(C)C(=O)c2ccc(NC(=O)C3CCOCC3)cc2OC[C@@H](C)N(Cc2cccnc2)C[C@@H]1C,inactive
19,CC(C)[C@H](NC(=O)[C@H](CC(=O)O)NC(=O)[C@H](CCCCN)NC(=O)[C@@H](N)CCCNC(=N)N)C(=O)N[C@@H](Cc1ccc(O)cc1)C(=O)O,inactive
20,O=C(NC[C@H]1CCCO1)c1ccc[nH]1,inactive
21,CN(C)S(=O)(=O)N1Cc2nnn(C)c2[C@H](COCC2CC2)C1,inactive
22,C[C@@H]1CN([C@@H](C)CO)C(=O)c2cc(NC(=O)Nc3ccc(C(F)(F)F)cc3)ccc2O[C@@H](C)CCCCO[C@@H]1CN(C)C,inactive
23,CS(=O)(=O)Nc1ccc2c(c1)[C@H]1C[C@@H](CC(=O)NCc3ccc(-c4ccccc4)cc3)O[C@@H](CO)[C@H]1O2,inactive
24,O=C(C[C@H]1CC[C@H](NS(=O)(=O)c2ccc(F)cc2)[C@@H](CO)O1)N1CCC(Cc2ccccc2)CC1,inactive
25,CC=Cc1ccc2n(c1=O)C[C@@H]1[C@@H](CO)[C@H](C(=O)NCCC)[C@H]2N1S(=O)(=O)c1cn(C)cn1,inactive
26,Cc1ccc(N2C[C@@H](N)CC2=O)cc1,inactive
27,C[C@@H]1CN([C@H](C)CO)C(=O)c2cc(NS(=O)(=O)c3cccs3)ccc2O[C@H]1CN(C)S(=O)(=O)c1cn(C)cn1,inactive
28,C[C@@H]1CN([C@H](C)CO)C(=O)c2cccc(NC(=O)c3cnccn3)c2O[C@@H]1CN(C)S(=O)(=O)c1ccc(Cl)cc1,inactive
29,NCC[C@H]1CC[C@@H](NC(=O)Nc2ccc(F)cc2)[C@@H](CO)O1,inactive
30,CC(=O)N1[C@H](CO)[C@@H](c2ccccc2)C12CN(C(=O)CN1CCOCC1)C2,inactive

# Reference: the antibiotic and cytotoxicity screens of Wong et al. (2023)
